Data on 31 molecules can be found in publication PMC9911399, “Two distinct binding modes provide the RNA-binding protein RbFox with extraordinary sequence specificity”.

Where a chain is given by its changes, count along the chain named. The list shows a part of the results.

The labels stand for the following.
T1: RBFOX1 RRM RbFoxmut (Fox-RRM*) (Homo sapiens, UniProt Q9NWB1 109-208, R118D;E147R;N151S;E152T)
T1 sequence: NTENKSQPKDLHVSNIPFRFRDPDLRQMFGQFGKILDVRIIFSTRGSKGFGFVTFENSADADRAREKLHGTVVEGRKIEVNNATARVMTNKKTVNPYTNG

B1: CUGCUUU (DNA:RNA)
RNA: GGGAGACCGGAAUUCAGAUUGUCCCUGCUUUUUAAAUCCCGUCGUAGCCACCA
DNA 1: CAATCTGAATTCCGGTCTCCC
DNA 2: TGGTGGCTACGACGGGATT
B2: UCACGGC (DNA:RNA)
RNA: B1 RNA with C25U, U26C, G27A, U29G, U30G, U31C
DNA 1: CAATCTGAATTCCGGTCTCCC
DNA 2: TGGTGGCTACGACGGGATT
B3: AAAUAGU (DNA:RNA)
RNA: B1 RNA with C25A, U26A, G27A, C28U, U29A, U30G
DNA 1: CAATCTGAATTCCGGTCTCCC
DNA 2: TGGTGGCTACGACGGGATT
B4: CUCUACG (DNA:RNA)
RNA: B1 RNA with G27C, C28U, U29A, U30C, U31G
DNA 1: CAATCTGAATTCCGGTCTCCC
DNA 2: TGGTGGCTACGACGGGATT
B5: ACUCCUC (DNA:RNA)
RNA: B1 RNA with C25A, U26C, G27U, U29C, U31C
DNA 1: CAATCTGAATTCCGGTCTCCC
DNA 2: TGGTGGCTACGACGGGATT
B6: GACCCAA (DNA:RNA)
RNA: B1 RNA with C25G, U26A, G27C, U29C, U30A, U31A
DNA 1: CAATCTGAATTCCGGTCTCCC
DNA 2: TGGTGGCTACGACGGGATT
B7: CGGAGGG (DNA:RNA)
RNA: B1 RNA with U26G, C28A, U29G, U30G, U31G
DNA 1: CAATCTGAATTCCGGTCTCCC
DNA 2: TGGTGGCTACGACGGGATT
B8: AUAACUU (DNA:RNA)
RNA: B1 RNA with C25A, G27A, C28A, U29C
DNA 1: CAATCTGAATTCCGGTCTCCC
DNA 2: TGGTGGCTACGACGGGATT
B9: CGGAGCC (DNA:RNA)
RNA: B1 RNA with U26G, C28A, U29G, U30C, U31C
DNA 1: CAATCTGAATTCCGGTCTCCC
DNA 2: TGGTGGCTACGACGGGATT
B10: AAAGACA (DNA:RNA)
RNA: GGGAGACCGGAAUUCAGAUUGUCCAAAGACAUUAAAUCCCGUCGUAGCCACCA
DNA 1: CAATCTGAATTCCGGTCTCCC
DNA 2: TGGTGGCTACGACGGGATT
B11: UCUAGCU (DNA:RNA)
RNA: B10 RNA with A25U, A26C, A27U, G28A, A29G, A31U
DNA 1: CAATCTGAATTCCGGTCTCCC
DNA 2: TGGTGGCTACGACGGGATT
B12: UCCUGAC (DNA:RNA)
RNA: GGGAGACCGGAAUUCAGAUUGUCCUCCUGACUUAAAUCCCGUCGUAGCCACCA
DNA 1: CAATCTGAATTCCGGTCTCCC
DNA 2: TGGTGGCTACGACGGGATT
B13: UAGCUGU (DNA:RNA)
RNA: B1 RNA with C25U, U26A, U30G
DNA 1: CAATCTGAATTCCGGTCTCCC
DNA 2: TGGTGGCTACGACGGGATT
B14: UCAUAAU (DNA:RNA)
RNA: B12 RNA with C27A, G29A, C31U
DNA 1: CAATCTGAATTCCGGTCTCCC
DNA 2: TGGTGGCTACGACGGGATT
B15: UGCCUAU (DNA:RNA)
RNA: B1 RNA with C25U, U26G, G27C, U30A
DNA 1: CAATCTGAATTCCGGTCTCCC
DNA 2: TGGTGGCTACGACGGGATT
B16: UGUCGAA (DNA:RNA)
RNA: B12 RNA with C26G, C27U, U28C, C31A
DNA 1: CAATCTGAATTCCGGTCTCCC
DNA 2: TGGTGGCTACGACGGGATT
B17: UCUCGGA (DNA:RNA)
RNA: B12 RNA with C27U, U28C, A30G, C31A
DNA 1: CAATCTGAATTCCGGTCTCCC
DNA 2: TGGTGGCTACGACGGGATT
B18: GGUGGGA (DNA:RNA)
RNA: B10 RNA with A25G, A26G, A27U, A29G, C30G
DNA 1: CAATCTGAATTCCGGTCTCCC
DNA 2: TGGTGGCTACGACGGGATT
B19: UCGAUUC (DNA:RNA)
RNA: B1 RNA with C25U, U26C, C28A, U31C
DNA 1: CAATCTGAATTCCGGTCTCCC
DNA 2: TGGTGGCTACGACGGGATT
B20: CCCCCCC (DNA:RNA)
RNA: B12 RNA with U25C, U28C, G29C, A30C
DNA 1: CAATCTGAATTCCGGTCTCCC
DNA 2: TGGTGGCTACGACGGGATT
B21: UCUCUCA (DNA:RNA)
RNA: B10 RNA with A25U, A26C, A27U, G28C, A29U
DNA 1: CAATCTGAATTCCGGTCTCCC
DNA 2: TGGTGGCTACGACGGGATT
B22: GUUGAAG (DNA:RNA)
RNA: B10 RNA with A25G, A26U, A27U, C30A, A31G
DNA 1: CAATCTGAATTCCGGTCTCCC
DNA 2: TGGTGGCTACGACGGGATT
B23: GGCAUCA (DNA:RNA)
RNA: B10 RNA with A25G, A26G, A27C, G28A, A29U
DNA 1: CAATCTGAATTCCGGTCTCCC
DNA 2: TGGTGGCTACGACGGGATT
B24: CAUCCUG (DNA:RNA)
RNA: B1 RNA with U26A, G27U, U29C, U31G
DNA 1: CAATCTGAATTCCGGTCTCCC
DNA 2: TGGTGGCTACGACGGGATT
B25: CUCCUUC (DNA:RNA)
RNA: B1 RNA with G27C, U31C
DNA 1: CAATCTGAATTCCGGTCTCCC
DNA 2: TGGTGGCTACGACGGGATT
B26: GUCGCAG (DNA:RNA)
RNA: B12 RNA with U25G, C26U, U28G, G29C, C31G
DNA 1: CAATCTGAATTCCGGTCTCCC
DNA 2: TGGTGGCTACGACGGGATT
B27: GGGUAAG (DNA:RNA)
RNA: B12 RNA with U25G, C26G, C27G, G29A, C31G
DNA 1: CAATCTGAATTCCGGTCTCCC
DNA 2: TGGTGGCTACGACGGGATT
B28: UCGACAG (DNA:RNA)
RNA: B12 RNA with C27G, U28A, G29C, C31G
DNA 1: CAATCTGAATTCCGGTCTCCC
DNA 2: TGGTGGCTACGACGGGATT
B29: AGUGAUA (DNA:RNA)
RNA: B10 RNA with A26G, A27U, C30U
DNA 1: CAATCTGAATTCCGGTCTCCC
DNA 2: TGGTGGCTACGACGGGATT
B30: CUUGCGC (DNA:RNA)
RNA: B1 RNA with G27U, C28G, U29C, U30G, U31C
DNA 1: CAATCTGAATTCCGGTCTCCC
DNA 2: TGGTGGCTACGACGGGATT
B31: UGUUGAA (DNA:RNA)
RNA: B12 RNA with C26G, C27U, C31A
DNA 1: CAATCTGAATTCCGGTCTCCC
DNA 2: TGGTGGCTACGACGGGATT

The target in this test is T1, RBFOX1 RRM RbFoxmut (Fox-RRM*). The experiment in a line: EMSA; HiTS-Eq, 1 nM pool, 10 min; buffer printed only for the single-RNA assays: 10 mM Tris pH 7.5, 150 mM NaCl, 3.4 mM EDTA, 0.001% NP-40, 30 C. The settings on record: tags: His6 N-terminal (pET28a); label: 5' 32P. The gist of the method: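 Purified wild-type or mutant RbFox RRM at increasing concentrations was equilibrated with 1 nM of 5′-radiolabelled RNA carrying 7 randomized nucleotides for 10 min in 50 µL. Unbound RNA was separated by 8% native PAGE and sequenced. Relative association constants came from read-count changes of each RNA species compared with the control reaction, normalised to the cognate motif.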
In the case of B1, the binding signal is 0.0878 KA relative to UGCAUGU.

For B2, the binding signal is 0.0983 KA relative to UGCAUGU.

Consider B3, for which the binding signal was 0.0888 KA relative to UGCAUGU.

On to B4, for which the binding signal was 0.131 KA relative to UGCAUGU.

In the case of B5, the binding signal is 0.0805 KA relative to UGCAUGU.

In the case of B6, the binding signal is 0.0621 KA relative to UGCAUGU.

Regarding B7, the binding signal is 0.0657 KA relative to UGCAUGU.

In the case of B8, the binding signal is 0.103 KA relative to UGCAUGU.

As to B9, the binding signal is 0.159 KA relative to UGCAUGU.

As to B10, the binding signal is 0.0717 KA relative to UGCAUGU.

Take B11: the binding signal was 0.0854 KA relative to UGCAUGU.

On to B12, for which the binding signal is 0.123 KA relative to UGCAUGU.

Turning to B13, the binding signal was 0.133 KA relative to UGCAUGU.

As for B14, the binding signal was 0.103 KA relative to UGCAUGU.

As to B15, the binding signal is 0.0874 KA relative to UGCAUGU.

B16: the binding signal is 0.103 KA relative to UGCAUGU.

For the molecule B17, the binding signal is 0.0758 KA relative to UGCAUGU.

As to B18, the binding signal was 0.0667 KA relative to UGCAUGU.

In the case of B19, the binding signal was 0.115 KA relative to UGCAUGU.

Consider B20, for which the binding signal is 0.0938 KA relative to UGCAUGU.

B21: the binding signal was 0.101 KA relative to UGCAUGU.

As for B22, the binding signal was 0.104 KA relative to UGCAUGU.

As to B23, the binding signal is 0.329 KA relative to UGCAUGU.

In the case of B24, the binding signal was 0.102 KA relative to UGCAUGU.

With B25, the binding signal was 0.0516 KA relative to UGCAUGU.

As for B26, the binding signal is 0.104 KA relative to UGCAUGU.

Take B27: the binding signal is 0.116 KA relative to UGCAUGU.

With B28, the binding signal is 0.0676 KA relative to UGCAUGU.

For B29, the binding signal was 0.133 KA relative to UGCAUGU.

For B30, the binding signal was 0.107 KA relative to UGCAUGU.

For the molecule B31, the binding signal was 0.131 KA relative to UGCAUGU.
